In ChEMBL document CHEMBL1201862, “PubChem BioAssay data set” (2004):
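Dose response: 5 concentrations. Exposure: 48 h. Format: 96-well plates. Endpoint: linear interpolation; highest concentration if not reached. Abbreviation: GI50, concentration required for 50% inhibition of growth.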 Calls of active or inactive are those of the source. Rule as the data show it: active = GI50 up to about 1.1 µM and inactive = higher.

system: NCI-H322M; experiment: NCI anticancer screen, dose series, 48 h

Row | Compound | GI50
1 | COc1cc(C(=O)Nc2cccc3ccccc23)c(Br)c(OC)c1OC | inactive: > 100 µM
2 | COC(=O)[C@H]1CO[C@H]2C/C(C)=C/CC/C(C)=C/CC[C@@]3(C)O[C@@H]3C[C@H]21 | inactive: 11.6 µM
3 | Nc1ccc2cc(S(=O)(=O)O)cc(O)c2c1/N=N/c1ccc(NC(=O)Nc2ccc(/N=N/c3c(N)ccc4cc(S(=O)(=O)O)cc(O)c34)c(S(=O)(=O)O)c2)cc1S(=O)(=O)O | inactive: > 100 µM
4 | CCSc1nc(C)nc2c1sc1nc3ccccc3n12 | inactive: > 100 µM
5 | CC1=C2C(=O)O[C@@H](c3ccoc3)[C@]2(C)CCC1 [FRAXINELLONE] | inactive: > 100 µM
6 | C=CCn1c(-c2ccc([N+](=O)[O-])cc2)cs/c1=N\C(P(=O)(O)O)P(=O)(O)O | inactive: > 100 µM
7 | Cc1nnc2n1N=C(c1cc(F)c(Cl)cc1Cl)/C(=C/c1ccc(-c3ccc([N+](=O)[O-])cc3)o1)S2 | inactive: > 100 µM
8 | COC(=O)C1=C(OC(=O)c2ccccc2)C(C(=O)OC)[C@]2(O)[C@@H](C(=O)OC)[C@H]1C[C@@H](c1ccccc1)[C@@H]2C(=O)OC (stereo partly drawn) | inactive: 17.2 µM
9 | COC(=O)C(C#CCCCCC#CC(NC(=O)OCc1ccccc1)(C(=O)OC)C(F)(F)F)(NC(=O)OCc1ccccc1)C(F)(F)F (stereo not drawn) | inactive: > 100 µM
10 | CC1CC(=O)C(C(O)CC2CC(=O)N(c3ccccc3)C(=O)C2)C(C)C1 (stereo not drawn) | inactive: > 100 µM
11 | Cc1ccc(Nc2nc(NNC(=O)Cc3ccccc3)nc(NNC(=O)c3ccncc3)n2)cc1 | inactive: > 10 µM
12 | O=C1COC(c2ccccc2O)=NN1CCCN1CCCC1 | inactive: > 100 µM
13 | O=[N+]([O-])c1ccc2[nH]ncc2c1Cl | inactive: 14.7 µM
14 | c1ccc(C(c2ccccc2)c2ccncc2)cc1 | inactive: 60.5 µM
15 | CCOC(=O)C1=C(OC(OCC)C([Se]c2ccccc2)C(C)C)CCC1 (stereo not drawn) | inactive: 60.8 µM
16 | CC1(C)OC[C@@H]([C@@]2(COC(c3ccccc3)(c3ccccc3)c3ccccc3)CC=CC(=O)O2)O1 | inactive: 53 µM
17 | N#Cc1ncc(C(Cl)Cl)nc1Cl | inactive: 3.69 µM
18 | CC(=O)OCC1=C(C)C[C@H]([C@@H](COC(C)=O)C2CCC3C4C[C@H]5O[C@]56CC=CC(=O)[C@]6(C)C4CC[C@@]32C)OC1=O (stereo partly drawn) | inactive: 1.79 µM
19 | CCOC(=O)c1nc2ccc(OC)cc2c2c1Cc1ccccc1-2 | inactive: > 100 µM
20 | O=CN/C=C/c1cccc(O)c1 | inactive: 67.9 µM
21 | COc1cc2nc3n(c2cc1OC)C(O)c1c(Cl)nc(SC)nc1S3 (stereo not drawn) | inactive: 13.5 µM
22 | COC1OC(C)C(OC(=O)C(C)(C)C)C(OS(=O)(=O)c2ccc(C)cc2)C1OS(=O)(=O)c1ccc(C)cc1 (stereo not drawn) | inactive: > 100 µM

Row | Compound | GI50
23 | COc1ccc(/C=C(\C2=NC(=O)CS2)c2nc3ccccc3[nH]2)cc1 | inactive: 45.2 µM
24 | COC(=O)c1cccc2c1Oc1ccccc1S2 | inactive: > 100 µM
25 | c1ccc(C(=NNc2cnc3ccccc3n2)c2ccccn2)cc1 | inactive: 2.26 µM
26 | OC1c2c(ccc3c2CCC3)CC12Cc1ccccc1C2 (stereo not drawn) | inactive: 16.9 µM
27 | O=S(=O)(SCc1ccccc1)C(c1ccccc1)c1ccccc1 | inactive: > 100 µM
28 | Cc1cc(N(CCC#N)CCC#N)ccc1/C=C/C(=O)Nc1ccccc1Cl | inactive: > 100 µM
29 | CC1=NN(c2ccccc2Cl)C2(C1)SCC(=O)N2c1nc2ccccc2s1 (stereo not drawn) | inactive: > 100 µM
30 | O=C(O)c1cc2ccc(Cl)cc2c(O)c1C1=CCCCC1 | inactive: 28.2 µM
31 | CCCNC(=O)CCC(C)C1CCC2C3C(C[C@H](OC(C)=O)[C@]12C)[C@@]1(C)CCC2(C[C@H]1C[C@H]3OC(C)=O)OOC1(CC[C@]3(C)C4C[C@H](OC(C)=O)[C@]5(C)C(C(C)CCC(=O)NCCC)CCC5C4[C@H](OC(C)=O)C[C@@H]3C1)OO2 (stereo partly drawn) | inactive: > 100 µM
32 | COc1ccc(N[S+]([O-])c2c(C)cc(C)cc2C)cc1 (stereo not drawn) | inactive: 98.6 µM
33 | CCOC(=O)c1cnc2oc3ccc(O)cc3c2c1C | inactive: 71 µM
34 | O=C(NNS(=O)(=O)c1ccccc1)c1cccnc1 | inactive: > 100 µM
35 | COc1ccc(/N=N/C(=O)NC(CC(C)C)C(=O)NC(CC(C)C)C(=O)O)cc1 (stereo not drawn) | inactive: > 100 µM
36 | COC(=O)C1CC2(c3ccccc3)C(=O)c3ccccc3N2O1 (stereo not drawn) | inactive: > 100 µM
37 | COC(=O)Cc1c(-c2c(CC(=O)OC)c3ccccc3n2C2OC(COC(C)=O)C(OC(C)=O)C(OC(C)=O)C2OC(C)=O)[nH]c2ccccc12 (stereo not drawn) | inactive: > 100 µM
38 | COC(=O)C(C(=O)OC)C1CCCC(=O)C1 (stereo not drawn) | inactive: > 100 µM
39 | O=C1CC(=O)NC(NN2C(=O)CSC2c2ccccc2)=N1 (stereo not drawn) | inactive: > 100 µM
40 | O=C1C(Cl)=C(NCCN2CCOCC2)C(=O)c2c(O)ccc(O)c21 | inactive: 2.05 µM
41 | C/C=C1/CN2CCC34c5ccccc5N(C)C23C2CC1C4(C(=O)OC)C(OC(C)=O)O2 (stereo not drawn) | inactive: > 100 µM
42 | OC1CCN2Cc3ccccc3N=C12 (stereo not drawn) | inactive: > 100 µM
43 | O=c1[nH]c(=O)n(C2CC(O)C(CO)O2)cc1C(F)(C(F)(F)F)C(F)(F)F (stereo not drawn) | inactive: > 100 µM
